Test results published in the supplement of paper PMC11417369.
Some of the results follow.

The sequences below were run on PfHDP1 homeodomain (GST-tagged) (assay: gcPBM binding intensity (ln(normalized median fluorescence intensity)); higher = stronger DNA binding).
Outline: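 Alexa488 anti-GST antibody, scanned at 488 nm, detected GST-tagged P. falciparum DNA-binding domains that had been expressed in E. coli and incubated for 1 h on an Agilent 4 × 180k array. The array carried primer-extended double-stranded 36-bp intergenic genomic probes and negative controls. Binding intensity is the highest Masliner-normalised natural-log median intensity across replicate spots of either orientation of each probe.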

Sequence	gcPBM binding intensity (ln)
TACGTATTCATGTATAGTACTCTTTTTTTTAATAAA [XGTACX_site3299]	6.19
ACAAGTGTATATGTTATATATATATATATATATATA [CACACA_negctrl_site1686]	9.41
AAAGATAAAATATATACACACACATAAATACGTACA [CACACA_site8275]	6.96
ATTTATATTTTATATACACACATGAACTTATATGGA [CACACA_site3167]	6.54
GAATATAAAAGGAACGGTACAGAAAAAAAAAAAAAA [XGTACX_site3917]	6.41
TTTATTTTTTATATATCACTTAAAAAAAAAAAAAAA [CACACA_negctrl_site249]	6.3
ATGTAATATATTATATGTACATATTTTTATGTAGAT [XGTACX_site5945]	6.67
CTTTTTTTTTTATGCACACACAATTATACATTCCTT [CACACA_site3877]	10.6
ATAACCTAATAATACACACACATGAATATATATAAT [CACACA_site4689]	7.17
AATATAGTCTCACATACACACATATATATTTATATA [CACACA_site2503]	6.9
AAAACAAATAAGTAAACACACATATATAATATATAT [CACACA_site2586]	6.7
AAAAAAAAAAAAACTAGTACATATATATAGTATGAA [XGTACX_site6279]	6.33
CCATGATTATTAGATTGTACATAACATACAAATTGA [XGTACX_site314]	6.39
AATGTGCAGAAAAGTGGTACATATGATTGTTAAGAG [XGTACX_site1038]	7.58
AATATATTTTTTTTTGGTACACAAGCACATCTATAC [XGTACX_site2183]	6.76
TTTCGATTATGTTTTTGTACGCAATATATTAATTCT [XGTACX_site3634]	6.51
TACCTTTTTTATGTTGCACACTGGGATGTTTTCTAA [CACACA_site1653]	9.42
ATTCATATTTTTCAAGTGCGCATTAAAATATTAACC [GTGCAC_site9741]	8.58
ATGTCATATATATGTTGTACGAGTTTGTTTATGTAT [XGTACX_site1150]	6.97
TTCATTTTATAAAAAGCACACATATAGTTATATGCA [CACACA_site9228]	6.45
AGTTTACATTAAATCACGCACACAAAAAAAAAAAAA [CACACA_site2419]	6.48
TGCACATTTATGTAACGTACAAAATATAATATGTTA [XGTACX_site8255]	6.51

Sequence	gcPBM binding intensity (ln)
GTATAAAAGTAATGTAGTACTTATATATTTTTATTT [XGTACX_site8975]	6
GGTTGCTTCAGTGAATGTACATAGTGGTAAACAAGC [XGTACX_site166]	7.58
TCCTTATATTGGCACACACACACAATAAAATGAAAA [CACACA_site4715]	7.07
TGGGAGCACAGACACACACACACACCCATATATATA [CACACA_site335]	8.04
TACAAAATAAAAATAATTCTTTCAAAAAATAATAAA [XGTACX_negctrl_site368]	5.86
AGTAATATAATATAAGCACACGTGTATTTATTTAGT [CACACA_site4246]	6.76
AGTTTAATATAAAATACACACTACTCTTATAAATAT [CACACA_site6803]	6.51
ATTTTCTTTCTATGCACACGCACGTATTTGCACCCA [CACACA_site3350]	10.9
GAAATAATAAATTAAAAATCGTTTATAACATTTAAC [CACACA_negctrl_site425]	6.21
CTTTTTTTTTGATGTTGTACATATATATTATATAAT [XGTACX_site1321]	6.9
GTATATAATATTAGTGCACACACAAAAATGTACTAA [CACACA_site8112]	10.3
GAAAATTTATTTTTGGTGCATGTATTTATTTATTTT	9.03
ATTTCTAATATTTTTGCACACTAAACAATAAATTTC [CACACA_site3943]	9.98
ATATATGTTATTATTTGTACACACACATATATATCC [XGTACX_site7657]	7.14
TTTTTAATTTAAAAAAATAATATTTTATATTCCGAA [CACACA_negctrl_site108]	6.25
AAATATTTATATATATGTACACATATAATATTTTTA [XGTACX_site2338]	6.2
TATTTTTTATTTTTTTGTACATATTTGATAATTAAT [XGTACX_site316]	6.79
GTAAGCATCAAAAAAGGTACAGAAATTATAAATAAA [XGTACX_site6708]	6.18
CATTTATTTATATACACACACACAAAAAAAAAAAAA [CACACA_site7279]	6.75
TGCTATATTATTATCGCACACCGTTGATTCTAAATA [CACACA_site1207]	6.64
ATAAGTGTATAAAAATGTACGTGTATAAAAATATGT [XGTACX_site8235]	7.26
TATATATATTCTTTAAAACACACGTAAAGAAGAATT [CACACA_site2718]	6.86

Sequence	gcPBM binding intensity (ln)
AAAAAAAAAAGAAACACACACATATATATATATAAT [CACACA_site5052]	6.7
CAAAAAAACAAACACACACACACACCCATATATATA [CACACA_site3653]	6.85
TTATTTTTTCAAGAATGTACTTACGAATTGTCGTAT [XGTACX_site1363]	6.1
ATCAATACACATATATGTACATATAATAATTATCTT [XGTACX_site662]	7.86
TAATTACCATATGGTACACACATATATATATGTATA [CACACA_site3487]	7.02
TTTTTTTTTTGTAGTTGTACGAACTAGCTATTTATG [XGTACX_site692]	6.26
TTGGCATACAGACACACACACACACGCCCACATATA [CACACA_site6425]	6.84
ATATATATATATATATGTACATATATATATTTTTTA [XGTACX_site5987]	9.32
TGTTACATATTATAAATACATTAACTATTATATGTA [CACACA_negctrl_site1735]	6.25
TATATATATATATATTGTACATATTGTATATATTGT [XGTACX_site3212]	9.15
TATATATATATTTATACACACATTAGTGTATCCATG [CACACA_site5609]	8.4
TTTATAAAAAATTTTTTTTTTTTTTTTTAAATATAT [CACACA_negctrl_site146]	5.95
TTATATTAAACAAACACACACATATATATATATATA [CACACA_site2382]	9.34
TTAACAAATGGACACACACACACACCCAAAAAAAAA [CACACA_site4443]	6.77
TAAATATAAACACAAACACACACATATATATATATA [CACACA_site7978]	9.27
ATATATTATTATATATGTACTTATTTATAAATGATT [XGTACX_site7597]	6.33
AAATAGGGAATTTATGCACACAGTTAAGGGGGAAAA [CACACA_site2071]	9.1
AATAAATTAATAAGGTGTACATAAATAATTTATATA [XGTACX_site8278]	6.66
ATTTTTTTTTTTTTTTTTTTTTTTTTCTCTCTCACT [CACACA_negctrl_site1046]	6.05
CATACTCTACATAGATGTACTCATTTAAAAAAAAAA [XGTACX_site6945]	6.12
ATTCAAAAGGTTTAATGTACGTGATGTTTCACAAAT [XGTACX_site784]	6.15
AAATATATATATATAATACACACTAAAGTAACATAA [CACACA_site2870]	6.78

Sequence	gcPBM binding intensity (ln)
ATAGAAGGACATATAACACACATATATTATAAGTAT [CACACA_site5461]	6.49
TGTCGACATGTAGGTAGTACTATTAAAAATAATGAT [XGTACX_site3849]	6.55
GGATGATTAAGGGGGACACACGTTTATATATTTATA [CACACA_site4342]	7.45
TTTTTTTTTTATTCTACACACATATGTTTTTATATG [CACACA_site182]	6.67
TATATATATATATGTTGTACTTTTAATTTAAATGTA [XGTACX_site4239]	9.34
TGTTATTAAAACGTGACACACAATATATATATATAT [CACACA_site3539]	9
TTTTTTTTTAAGCAAAGGAAATCAAAATAAAAATAT [CACACA_negctrl_site719]	6.43
TTTTTTTTTTTTTTTTGTACACATAGTAAAAATTAA [XGTACX_site2410]	6.39
TTATAAATTATATATATGACCAATAATTGTGAGCAT [CACACA_negctrl_site725]	7.05
ATTTTCAAATTAAAATGTACAAATGAAAGAAAGGGA [XGTACX_site7048]	6.77
GTGAATCCTAAGTGTACACATCTTACAGATATATAT [CACACA_site4836]	7.51
TGAAATAAAATTTGTACACACATATATATATATATA [CACACA_site586]	9.3
TTCCTTCATTGGAAAAGTACACAATATTGTCGTTTA [XGTACX_site8057]	6.44
ATATAGGTATAATACACACACTAATATGTAACTGTA [CACACA_site7011]	6.58
GCACAAATCATCAAATGTACAGAAAATGCTGTCAAT [XGTACX_site5037]	6.12
TAAATACCTATATGGCGTACTATTATCATAGTATAT [XGTACX_site5423]	6.27
CACGCATACAGACACACACACACACCCATATATATA [CACACA_site636]	7.24
TTAAAAATAAAACAAAGTACTCAAGTTATTGTCTTT [XGTACX_site1584]	6.26
TATGATATGTATGGAAGTACGAAGAGGGATGATCAG [XGTACX_site1677]	7.05
AACTATATATATAATTCACACATGTTTTAAAATTTT [CACACA_site4971]	6.96
CTATGCATTTATAGTGCATGTAAAATATAAGATAAT [TGCATGCA_site71]	9.31
TATAATTAATTAGAAGTGCATTAGGTAACAACTGTC [GTGCAC_site9746]	8.91
